# Test results: the antibiotic and cytotoxicity screens of Wong et al. (2023)
# This is one part of the list.
# Tests used:
# HSkMC = human skeletal muscle cells; test: cytotoxicity call (relative viability < 0.9); settings: 10 µM
# HepG2 = test: cytotoxicity call (relative viability < 0.9); settings: 10 µM
# S. aureus RN4220 = test: growth inhibition call (relative growth <= 0.2); settings: 50 µM
Compound,cytotoxicity call (HSkMC),cytotoxicity call (HepG2),growth inhibition call (S. aureus RN4220)
COc1ccc(NC(=O)Nc2ccc3c(c2)C(=O)N([C@@H](C)CO)C[C@H](C)[C@@H](CN(C)Cc2ccc4c(c2)OCO4)OCCCC[C@@H](C)O3)cc1,inactive,inactive,inactive
CCN1OCN(c2nc(N(C)C)nc(N(C)C)n2)C1=N,inactive,inactive,inactive
C[C@H]1CCCCO[C@H](CN(C)C(=O)CCC(F)(F)F)[C@@H](C)CN([C@@H](C)CO)C(=O)c2cc(NC(=O)Nc3ccc4c(c3)OCO4)ccc2O1,inactive,inactive,inactive
Nc1ncnc2c1ncn2[C@H]1O[C@@H](C(=O)N2CCN(CC(=O)Nc3cccc4c3CNC4=O)CC2)[C@H](O)[C@@H]1O,inactive,inactive,inactive
O=C(C[C@@H]1CC[C@@H]2[C@H](COC[C@@H](O)CN2S(=O)(=O)c2ccccc2)O1)N1CCOCC1,inactive,inactive,inactive
CCC(=O)N(C)C[C@H]1Oc2ncc(C#C[C@@H](C)O)cc2C(=O)N([C@H](C)CO)C[C@H]1C,inactive,inactive,inactive
COc1ccc(CN(C)C[C@@H]2OCCCC[C@H](C)Oc3ccc(NS(=O)(=O)c4ccc(OC)cc4)cc3C(=O)N([C@H](C)CO)C[C@@H]2C)cc1,inactive,inactive,inactive
C[C@@H]1CCCCO[C@@H](CN(C)Cc2ccc3c(c2)OCO3)[C@H](C)CN([C@H](C)CO)C(=O)c2cc(NS(=O)(=O)c3ccc(Cl)cc3)ccc2O1,inactive,active,inactive
COC(=O)C(c1ccccc1Cl)N1CCc2sccc2C1.O=S(=O)(O)O (centres undefined),inactive,inactive,inactive
CNc1ccccc1C(N)=O,inactive,inactive,inactive
O=c1[nH]nc(N2CCOCC2)c(=O)[nH]1,inactive,inactive,inactive
COc1ccccc1NC(=O)N(C)C[C@H]1OCc2ccccc2-c2c(n(C)c3ccccc23)C(=O)N([C@H](C)CO)C[C@H]1C,inactive,inactive,inactive
C[C@H](CO)N1C[C@H](C)[C@H](CN(C)Cc2ccc(Oc3ccccc3)cc2)Oc2ccc(NC(=O)c3ccncc3)cc2CC1=O,inactive,inactive,inactive
COc1ccc(-c2cc3c(c(CCc4ccccc4)n2)[Si](C(C)C)(C(C)C)O[C@H]3c2ccccc2)cn1,inactive,inactive,inactive
C[C@H](CO)N1C[C@H](C)[C@H](CN(C)C(=O)c2cc(-c3ccccc3)on2)OCc2cn(nn2)CCCC1=O,inactive,inactive,inactive
C[C@H](CO)N1C[C@H](C)[C@@H](CN(C)Cc2ccc(Cl)c(Cl)c2)Oc2ccc(NC(=O)Cc3cn(C)c4ccccc34)cc2CC1=O,inactive,inactive,inactive
C[C@H](CO)N1C[C@H](C)[C@H](CN(C)C(=O)Nc2ccc(F)cc2)OCCCC[C@H](C)Oc2ccc(NC(=O)Nc3ccc(F)cc3)cc2C1=O,inactive,inactive,inactive
CC(C)NC(=O)N(C)C[C@@H]1Oc2cc(-c3ccccc3F)ccc2S(=O)(=O)N([C@H](C)CO)C[C@H]1C,inactive,inactive,inactive
C[C@H](CO)N1C[C@H](C)[C@@H](CN(C)Cc2ccc(C(=O)Nc3ccccc3N)cc2)Oc2ccc(NC(=O)Cc3cn(C)c4ccccc34)cc2CC1=O,inactive,inactive,inactive
C[C@@H]1CN([C@@H](C)CO)C(=O)CCCn2cc(nn2)CO[C@@H]1CN(C)C(=O)Nc1ccc2c(c1)OCCO2,inactive,inactive,inactive
Cc1ccc(S(=O)(=O)N(C)C[C@@H]2Oc3c(NC(=O)c4cc(C)nn4C)cccc3C(=O)N([C@@H](C)CO)C[C@@H]2C)cc1,inactive,inactive,inactive
CN(C)Cc1cn(CC[C@H]2CC[C@H](NC(=O)Cc3cccnc3)[C@H](CO)O2)nn1,inactive,inactive,inactive
C[C@@H]1CN([C@H](C)CO)C(=O)c2cc(NC(=O)CCC(F)(F)F)ccc2O[C@@H](C)CCCCO[C@H]1CN(C)C(=O)Nc1cccc2ccccc12,inactive,active,inactive
